The target of this test is TAR-DNA binding protein 43 (TDP43) (human (endogenous in SH-SY5Y, HEK293 and human spinal cord tissue)), Q13148. As to the kind of experiment: proximity ligation; PLA in HEK293 cells, with and without MMS (DNA damage induction); positive control; foci per nucleus. Particulars: remark: other sources report otherwise.

No constants are given. Whether binding was seen depends on the method and setting. In cells and extracts the contact can be indirect. Some results given as binding are weak or reduced against the parent protein; the word gives no strength.

B1: X-ray repair cross-complementing protein 4 (XRCC4), Q13426 1-336 (protein)
chain: MERKISRIHLVSEPSITHFLQVSWEKTLESGFVITLTDGHSAWTGTVSESEISQEADDMAMEKGKYVGELRKALLSGAGPADVYTFNFSKESCYFFFEKNLKDVSFRLGSFNLEKVENPAEVIRELICYCLDTIAENQAKNEHLQKENERLLRDWNDVQGRFEKCVSAKEALETDLYKRFILVLNEKKTKIRSLHNKLLNAAQEREKDIKQEGETAICSEMTADRDPVYDESTDEESENQTDLSGLASAAVSKDDSIISSLDVTDIAPSRKRRQRMQRNLGTEPKMAPQENQLQEKENSRPDSSLPETSKKEHISAENMSLETLRNSSPEDLFDEI
For the molecule B1, the binding entry is listed as “binds”.

These data come from publication PMC11155029.
